167 variants from the RNAGym collection of RNA variant scans (doi:10.1093/nar/gkz1192) can be followed below.

B1: CPEB3 Ribozyme (parent)
chain: UAACAGGGGGCCACAGCAGAAGCGUUCACGUCGCAGCCCCUGUCAGAUUCUGGUGAAUCUGCGAAUUCUGCUGUAUAUCUC

Read counts are not given, so values of variants with three or more changes are uncertain.

The variants in the data set derive from B1. The experiment in a line: self-cleavage, relative activity (ratio to wild type); higher = more cleavage; in vitro, sequencing. The method, boiled down:
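After error-prone PCR and barcoding, CPEB3 ribozyme mutant libraries were transcribed with T7 RNA polymerase at 37°C for 5 hours, then given 15 min with DNase I before an EDTA stop, and they cleaved during both steps. Reverse transcription with template switching preceded Illumina sequencing. Relative activity divides a variant's cleaved/total read fraction by the unmutated ribozyme's. At least 5 reads were required per variant, and three batches were averaged.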
Take A47G U69A U78A: the self-cleavage is 0.85.

As for U48C G61C A64G U80A, the self-cleavage was 0.24.

As for A47G U60C U76C, the self-cleavage is 0.34.

As to A47G U67C U76A, the self-cleavage was 0.3.

Turning to A47U A56U G63A U67A U80C, the self-cleavage was 0.05.

Take A45U U60A U78C: the self-cleavage is 1.13.

As to A45U U66C U69A, the self-cleavage came out at 0.23.

G46A U54C U58C U69C: the self-cleavage came to 0.06.

With A47C U49A U60A A65G, the self-cleavage was found to be 0.14.

Turning to A47U U48C A64G, the self-cleavage was 0.16.

Regarding A45U U51C A56C, the self-cleavage was found to be 0.33.

Regarding A45U U49C G55C A65G U80C, the self-cleavage came to 0.11.

In the case of U48C A64C U80C, the self-cleavage is 0.19.

With U48A A64G U80C, the self-cleavage came out at 0.26.

With U48C A56G U67A U80C, the self-cleavage worked out at 0.16.

For the variant U48C A57G A77G, the self-cleavage is 1.21.

For the variant U48C A65G U66C U78C, the self-cleavage amounted to 0.15.

As to A47G U54G U78C, the self-cleavage is 0.66.

A47G U69C U76C: the self-cleavage worked out at 0.78.

For A47G U54A U72A, the self-cleavage turned out to be 0.7.

Regarding U48C U49A U51A A64U U67C, the self-cleavage was 0.22.

As for G46A A56G A64G G70A, the self-cleavage stood at 0.08.

Regarding U48A A64U U69A, the self-cleavage was 0.06.

As for U48A U58A U80C, the self-cleavage was 0.27.

Regarding G46C U51A C62U, the self-cleavage turned out to be 0.2.

In the case of U48C U54A U74C U80C, the self-cleavage is 0.85.

As to A45U U48C U60A, the self-cleavage amounted to 0.63.

On to U48C A57G A65G U76A, for which the self-cleavage was 0.53.

Consider A47G U48C U66C, for which the self-cleavage worked out at 0.11.

A45U U58C C59U: the self-cleavage came out at 0.21.

As to A45U U60A A65G U69C U78C, the self-cleavage stood at 0.1.

In the case of U48C A65G U69C, the self-cleavage amounted to 0.15.

Turning to A47U U49C U54C, the self-cleavage came to 0.23.

Turning to G46U C62G U69C, the self-cleavage stood at 0.18.

As for A47G A57G C59U U74A A75G, the self-cleavage is 0.24.

Take A47G G61C U69C A77C: the self-cleavage is 0.29.

A45U U54C U60A U69C: the self-cleavage was 0.45.

Take A47G C71A U80A: the self-cleavage worked out at 0.35.

For the variant A47U A57G A64G U72C U74C, the self-cleavage was 0.39.

As to A45U U54A A56U, the self-cleavage came out at 0.22.

Regarding A47G G63A A65U, the self-cleavage is 0.49.

On to A45U U48C C62G U72C, for which the self-cleavage worked out at 0.22.

In the case of U48C U54C U60G, the self-cleavage worked out at 0.13.

U48C A56U U58C C59G: the self-cleavage stood at 0.14.

Take A47G U51C A65G U76C: the self-cleavage amounted to 0.45.

With U48C U51C A64U U80C, the self-cleavage amounted to 0.23.

Turning to A45U U49C U58A C71U, the self-cleavage was found to be 0.12.

As to A47G G63C U72C, the self-cleavage was 1.09.

Regarding U48C U54C U58C A64U A65G, the self-cleavage was determined as 0.42.

A45U U58A U69C: the self-cleavage was determined as 0.09.

Regarding A45U U49C C59A, the self-cleavage is 0.17.

With U48A A57C U72A, the self-cleavage came to 0.39.

For A47G G73A A77G, the self-cleavage turned out to be 1.31.

Consider U48A G70A U72C, for which the self-cleavage came out at 0.19.

Take A45U U54C A64G U66C: the self-cleavage was determined as 0.11.

For A47G U60C U66A, the self-cleavage was 0.25.

Turning to G46U U58C U60C A77G, the self-cleavage turned out to be 0.13.

Take U48C G53A U78C: the self-cleavage turned out to be 0.82.

Take A47U U49C U69C: the self-cleavage amounted to 0.28.

As for A47G U51C A64U, the self-cleavage was 0.29.

Regarding A47G A56G U74C, the self-cleavage amounted to 1.13.

Turning to A45U U58C A64U U67A, the self-cleavage amounted to 0.11.

For the variant A47G A56G A64G U66C, the self-cleavage was determined as 0.08.

For the variant A47G U49C U80A, the self-cleavage is 0.43.

Turning to U48C A56U A64G A65G, the self-cleavage was 0.06.

On to A47G U51A G70C, for which the self-cleavage was 0.22.

Turning to A47U U49G A64U, the self-cleavage is 0.18.

Regarding A47U U54A U69G U80C, the self-cleavage is 0.22.

Turning to U48A G55A U60C U74C, the self-cleavage was found to be 0.11.

For A47G U54C U58A U69A A77C, the self-cleavage turned out to be 0.16.

In the case of A47G U48C U67A, the self-cleavage amounted to 0.05.

Consider A45U U69C U72A, for which the self-cleavage is 0.16.

Regarding U48A C59U U78A U80C, the self-cleavage was determined as 0.1.

In the case of U48C A56G U76C U80A, the self-cleavage amounted to 0.59.

On to A45U U60A A64G U67A, for which the self-cleavage is 0.25.

For the variant A45U U60C C68U, the self-cleavage is 0.27.

Take A45U U51C A64G U67A: the self-cleavage was 0.17.

Consider A45U U67C U72C A77G, for which the self-cleavage worked out at 0.34.

Take A47G G52C G61C: the self-cleavage turned out to be 0.27.

As for A45U U51A A64U U69A, the self-cleavage was 0.26.

On to G46U U67C U72A, for which the self-cleavage amounted to 0.3.

In the case of A47G G55C U67C U74A, the self-cleavage is 0.15.

Turning to U48A U67A A75G, the self-cleavage was found to be 0.17.

Turning to A47G U49A U66C, the self-cleavage is 0.29.

A47G U49A U66A: the self-cleavage was found to be 0.17.

With U48C U51A U72A U80C, the self-cleavage stood at 0.27.

A47U U48C U69C U74C: the self-cleavage was found to be 0.14.

On to U48C A65U U66C, for which the self-cleavage worked out at 0.17.

As for G46C A47G C68A U69C U72C, the self-cleavage turned out to be 0.15.

Turning to U48C U54C U60A U80C, the self-cleavage was determined as 0.38.

Regarding A47G U60A U67C, the self-cleavage is 0.32.

A47G U60A U67G: the self-cleavage was 0.09.

A45U U58A U69C U72C U80C: the self-cleavage is 0.14.

Turning to A47G A65U U66C A75U, the self-cleavage amounted to 0.71.

Turning to U48A C62U U74C, the self-cleavage is 0.22.

On to A47G U54C C79A, for which the self-cleavage turned out to be 1.2.

Consider A47G U60A U72A U78C, for which the self-cleavage worked out at 0.21.

With U48C C50U U72A, the self-cleavage amounted to 0.3.

In the case of A45U U60A U69C U74A, the self-cleavage came out at 0.58.

As for A47G U60G U67C U74C U80C, the self-cleavage was 0.22.

Take A47G U48C U49C: the self-cleavage was found to be 0.3.

On to A47G U58C A64G, for which the self-cleavage was found to be 0.71.

A47G C50U A57G U66C: the self-cleavage was 0.17.

Consider G46A A64G U76A, for which the self-cleavage amounted to 0.23.

As for A47U A64G U74A, the self-cleavage worked out at 0.75.

As to U48C G61C U78C, the self-cleavage was found to be 0.12.

Consider A47G A64G A75G, for which the self-cleavage amounted to 0.77.

Regarding U48C U51A C62U U67C U74C U78C, the self-cleavage came out at 0.17.

As to A47C G63C A64G, the self-cleavage was 0.22.

For U48C G63A U69C, the self-cleavage was determined as 0.21.

Consider U48C A56G C62U, for which the self-cleavage was 0.14.

U48A A57G U67C U74A: the self-cleavage worked out at 0.14.

In the case of A47G U54A U69A A75G, the self-cleavage came to 0.79.

Take G46U U60C A64G C71U: the self-cleavage amounted to 0.13.

In the case of A47C A56G U58C U66G, the self-cleavage was determined as 0.18.

With U48C U49A A57G, the self-cleavage turned out to be 0.94.

On to U48C A65U U78C, for which the self-cleavage amounted to 0.18.

On to A47G U49G U80C, for which the self-cleavage turned out to be 0.17.

In the case of A47G U69C U78C U80C, the self-cleavage is 0.43.

Consider U48C G63A A64U U69C U72G U76A, for which the self-cleavage turned out to be 0.25.

G46U U48C U54G U80C: the self-cleavage was found to be 0.09.

Turning to A47G U69A C79A, the self-cleavage worked out at 0.91.

For A45U U72A U80C, the self-cleavage turned out to be 1.03.

Consider A45U U54A C59A, for which the self-cleavage came to 0.17.

With G46A U51C A65U, the self-cleavage was 0.13.

In the case of U48C G55U U67C U76C, the self-cleavage came out at 0.15.

As for A47G U60C U78A U80C, the self-cleavage was found to be 0.19.

As to A45U U48C A64G U76C, the self-cleavage turned out to be 0.14.

With A45U U69C U76C, the self-cleavage stood at 0.32.

Turning to A45U U58C U67C U72C, the self-cleavage is 0.1.

Consider G46A U60C A75G, for which the self-cleavage amounted to 0.07.

Take A45U U72C U78C: the self-cleavage was found to be 0.71.

Turning to A47G A57U U78G, the self-cleavage amounted to 0.22.

For the variant A47G U54C U76C A77G, the self-cleavage came out at 0.8.

Regarding A47G U48C U54C U78G, the self-cleavage came out at 0.18.

On to U48C U51A U80C, for which the self-cleavage worked out at 0.45.

On to U48A C50A U69G U74A U80A, for which the self-cleavage was found to be 0.07.

Consider A47G U67A U78C, for which the self-cleavage is 0.28.

As for A47G A57G U76A, the self-cleavage amounted to 0.56.

As to A47U C59U U66C U78C, the self-cleavage was 0.11.

As to U48C A56U C62U, the self-cleavage amounted to 0.12.

Take U48C A56C A64G: the self-cleavage came out at 0.14.

U48A A56G U60A C62G U80C: the self-cleavage is 0.07.

As for A47G U58C U60A U66C, the self-cleavage is 0.14.

A47G U60C U72A: the self-cleavage was found to be 0.22.

Turning to A47G U60C U72C, the self-cleavage was determined as 0.2.

As for U48C A56U A65G C68A, the self-cleavage worked out at 0.2.

In the case of U48A U60A U67C U80G, the self-cleavage was determined as 0.1.

For U48C A56G U76A, the self-cleavage came to 0.39.

On to U48C G52A A57G A64G, for which the self-cleavage worked out at 1.12.

For A47G A56C A64U U80C, the self-cleavage came to 0.28.

Turning to A45U U49G A64G C81U, the self-cleavage was found to be 0.1.

Take A47G C62U C71A: the self-cleavage came out at 0.29.

Turning to A45U U49C A56U U78C, the self-cleavage was 0.15.

For U48A C59U U66C, the self-cleavage came out at 0.16.

Turning to A45U U66C U67C U80G, the self-cleavage was 0.17.

As for A47U U58A A65G, the self-cleavage came to 0.51.

With G46U U54C A57C C71U G73A, the self-cleavage stood at 0.12.

With A47G U72C A75G, the self-cleavage amounted to 1.15.

As for A47U U54A A64G, the self-cleavage amounted to 0.27.

Consider U48A U49C A65G, for which the self-cleavage worked out at 0.08.

On to G46A A47G U80C, for which the self-cleavage came to 0.23.

Consider U48C A57G U60C, for which the self-cleavage amounted to 0.92.

Regarding A47G A64U U67G, the self-cleavage amounted to 0.15.

On to U48C A64G U66C, for which the self-cleavage was 0.32.

As for A47G U58C U67A U72C, the self-cleavage stood at 0.43.

For U48A U60C A64G, the self-cleavage amounted to 0.12.
